# Assay results as given in publication PMC4336329 (PLoS ONE, 2015).
# Hit rate of the full screen: of about 310,000 compounds, about 2,200 (0.71%) showed an effect of 50% or more. The effect is printed as a negative number. This is one part of the list.
# Biological target: human ether-à-go-go-related gene (hERG) potassium channel (human, UniProt Q12809)
# Assay: primary screen, population patch clamp on CHO cells stably expressing hERG
# human ether-à-go-go-related gene (hERG) potassium channel, sequence (Q12809 whole entry, looked up): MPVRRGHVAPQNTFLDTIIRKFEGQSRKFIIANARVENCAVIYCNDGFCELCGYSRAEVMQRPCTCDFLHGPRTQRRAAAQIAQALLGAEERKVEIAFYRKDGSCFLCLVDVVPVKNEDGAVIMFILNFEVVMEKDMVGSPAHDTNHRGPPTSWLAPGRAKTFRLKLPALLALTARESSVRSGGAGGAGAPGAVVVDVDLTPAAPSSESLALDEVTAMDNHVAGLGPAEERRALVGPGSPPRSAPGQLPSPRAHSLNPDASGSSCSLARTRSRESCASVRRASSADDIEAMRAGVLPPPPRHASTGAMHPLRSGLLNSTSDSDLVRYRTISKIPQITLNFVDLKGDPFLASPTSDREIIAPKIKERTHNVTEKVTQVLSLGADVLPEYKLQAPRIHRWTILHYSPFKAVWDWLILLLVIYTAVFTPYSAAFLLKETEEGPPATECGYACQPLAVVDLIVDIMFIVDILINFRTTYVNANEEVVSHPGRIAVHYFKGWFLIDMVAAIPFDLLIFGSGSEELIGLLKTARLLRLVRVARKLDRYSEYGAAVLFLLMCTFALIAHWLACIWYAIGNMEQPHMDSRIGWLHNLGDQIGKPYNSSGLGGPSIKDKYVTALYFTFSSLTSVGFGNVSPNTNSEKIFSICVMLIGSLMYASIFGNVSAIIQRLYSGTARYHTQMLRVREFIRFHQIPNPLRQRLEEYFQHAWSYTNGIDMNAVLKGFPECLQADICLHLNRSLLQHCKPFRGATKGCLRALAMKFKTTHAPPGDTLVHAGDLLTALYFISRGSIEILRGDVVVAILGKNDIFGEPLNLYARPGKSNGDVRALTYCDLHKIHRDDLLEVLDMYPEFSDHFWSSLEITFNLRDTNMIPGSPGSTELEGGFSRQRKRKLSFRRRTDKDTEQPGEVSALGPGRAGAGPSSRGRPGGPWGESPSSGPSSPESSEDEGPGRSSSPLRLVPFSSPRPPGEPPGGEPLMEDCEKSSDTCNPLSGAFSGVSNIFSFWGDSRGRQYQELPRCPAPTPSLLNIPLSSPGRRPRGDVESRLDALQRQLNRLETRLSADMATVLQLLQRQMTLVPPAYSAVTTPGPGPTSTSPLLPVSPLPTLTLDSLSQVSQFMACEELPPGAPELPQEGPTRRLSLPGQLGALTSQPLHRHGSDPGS
row,SMILES,"hERG current change (%, negative = inhibition) at 1uM"
1,CCNC(=O)NC(=O)C(C)OC(=O)C1CCN(S(=O)(=O)c2ccccc2C(=O)OC)CC1 (stereo not shown),10.2%
2,NC(=O)c1nc(C(=O)N2CCN(c3ccccc3)CC2)c2ccccc2n1,9.67%
3,COc1ccc(NC(=O)CSc2nc3c(sc4ccccc43)c(=O)n2CCCN2CCCC2)cc1,-1.35%
4,CCOC(=O)C1=C(Cn2cnc3ccccc32)NC(=O)NC1c1cc(C)ccc1C (stereo not shown),12.2%
5,COc1ccccc1N1CCN(C(=O)CSc2ncnc3c2cnn3-c2ccc(C)c(C)c2)CC1,8.88%
6,CC1(C)O[C@H]2CC(=O)OC[C@]23[C@H]2CC[C@@]4(C)[C@H](c5ccoc5)OC(=O)[C@H]5O[C@]54[C@]2(C)[C@@H](O)C[C@@H]13,12.2%
7,Cc1ccc(C(=O)C2CCN(C(=O)c3ccc(C)cc3)CC2)cc1,9.84%
8,O=C(C(Cc1ccccc1)n1cccc1)N1CCN(c2ccccc2)CC1 (stereo not shown),15.3%
9,COc1ccc(N2CCN(CC(O)COC(c3ccc(F)cc3)c3ccc(F)cc3)CC2)cc1.O=C(O)C(=O)O (stereo not shown),-74%
10,COc1ccc(CNC(=O)c2cccc(S(=O)(=O)N3CCCCC3)c2)cc1OC,8.06%
11,COC(=O)Nc1ccc(S(=O)(=O)N2CCCc3cccc(O)c32)cc1,40.1%
12,CN(C)CCNc1nc2c(c(=O)[nH]c(=O)n2C)n1CC(O)COc1ccc(Cl)cc1 (stereo not shown),5.04%
13,COc1cc(C(=O)OCC(=O)NC(C)CCc2ccccc2)cc(OC)c1OC (stereo not shown),11.3%
14,COC(=O)Cn1c(=NC(=O)C(C)C)sc2c(C)cc(C)cc21,12.8%
15,CCOC(=O)c1nc(Nc2ccccc2C)c2ccccc2n1,5.74%
16,CN1CCC(Oc2ccccc2Sc2ccccc2)CC1.O=C(O)C(=O)O,-14.2%
17,COc1cccc(/C=C2\SC(N)=NC2=O)c1OS(=O)(=O)c1ccccc1,2.6%
18,CCN1C(=O)C2(C(C#N)=C(N)Oc3n[nH]c(-c4ccccc4)c32)c2ccccc21 (stereo not shown),9.06%
19,N#Cc1nc(-c2ccc(OCc3ccc(Cl)cc3)cc2)oc1N1CCOCC1,-0.904%
20,COc1ccccc1CC(=O)NC1CCC(C)CC1 (stereo not shown),5.51%
21,O=C(Nc1nc(-c2ccc(Cl)cc2)cs1)c1cccnc1,11.4%
22,Cl.Oc1ccc(CN2CCCCC2)nc1-c1ccccc1,-7.62%

row,SMILES,"hERG current change (%, negative = inhibition) at 1uM"
1,CNc1nc(Cl)c(SC)c(NCc2cccc(OC)c2)n1,13.6%
2,O=C(N/C(=C\c1ccc([N+](=O)[O-])cc1)C(=O)N1CCCCC1)c1ccc(Br)o1,-53.4%
3,COc1ccccc1C(=O)Nc1ccnn1C1CCN(CCCC2CCCC2)CC1,-93.2%
4,COCC(=O)OCc1cc2cccc(C)c2[nH]c1=O,5.1%
5,Cn1c(/C=N/c2nc3ccccc3[nH]2)nc2ccccc21,8.07%
6,COC(=O)c1sc(NC(=O)C(C)C)c(C(=O)OC)c1C,11.6%
7,COc1ccc2c(c1)OC[C@H]1[C@@H]2N2C(=O)CNC(=O)[C@@]2(C)[C@H]1c1ccccc1,19.8%
8,c1ccc(-c2nc3ccccc3o2)nc1,0.456%
9,Br.COc1ccc(C(=O)Cn2c(NCCO)nc3ccccc32)cc1OC,1.77%
10,O=C(O)CCCC(=O)Nc1ccc(Sc2ccc([N+](=O)[O-])cc2)cc1,7.12%
11,CN(C)c1ccc(/C=N/NC(=O)c2cccc(C(=O)N/N=C/c3ccc(N(C)C)cc3)n2)cc1,4.04%
12,CCOc1cc(N2CCOCC2)c(OCC)cc1NC(=O)c1cc(C)cc(C)c1,6.66%
13,CCCCNCc1cc(Br)c(OCc2cccs2)c(OC)c1.Cl,-3.22%
14,CCCC12CN3CC(C)(CN(C1)C3c1cccs1)C2=O (stereo not shown),3.56%
15,NC(=O)C1CCN(c2ncc(C(F)(F)F)cc2Cl)CC1,10.6%
16,Cc1ccc(NC(=O)c2cc(=O)c3ccccc3o2)cc1,8.94%
17,Cc1cc(C(=O)Nc2nnc(C(F)(F)F)s2)cs1,5.94%
18,CC(C)Oc1ccc(Cl)cc1Nc1nc(NCCO)nc(N2CCCC2)n1,7.27%
19,Cc1ccc(-n2ncc3c(Nc4cccc(C(=O)O)c4)ncnc32)cc1,12.4%
20,COC(=O)C1=NN(N=O)C2(CC(=O)N(c3cc(C)cc(C)c3)C2=O)C1 (stereo not shown),9.48%
21,O=C1CC(=O)Nc2cc(S(=O)(=O)NCc3cccs3)ccc2N1,6.44%
22,COc1cccc(OC)c1C(=O)OCC(=O)NCCCc1ccccc1,7.04%

row,SMILES,"hERG current change (%, negative = inhibition) at 1uM"
1,O=C(NCCCSc1ccccc1)c1cc(Cl)ccc1O,13%
2,CC(=O)c1ccc(NC(=O)CSc2nnc(-c3ccoc3C)n2Cc2ccccc2)cc1,1.9%
3,Cc1ccccc1C(=O)Nc1nncs1,15.9%
4,CCc1nnc(NC(=O)Cc2cc(OC)c(OC)c(OC)c2)s1,2.08%
5,COc1ccccc1Cn1nc(C(=O)O)c2ccccc2c1=O,18.7%
6,COc1ccc(-c2nnc(-c3ccc(F)cc3)o2)cc1,13.1%
7,CCCSc1nc(O)c(C2OC(=O)c3c2ccc(OC)c3OC)c(=O)n1-c1ccccc1 (stereo not shown),25.6%
8,CCC(C)C(=O)Nc1nnc(CCc2ccccc2)s1 (stereo not shown),9.3%
9,Cn1ncc(Cl)c1C(=O)N/N=C/c1cccc(OC2CSC2)c1,9.83%
10,CC(C)(C)C(=O)NC(n1cnc2c(N3CCOCC3)ncnc21)C(Cl)(Cl)Cl (stereo not shown),6.82%
11,COc1cc(C(=O)NCc2cccc3ccccc23)ccc1OCc1ccccc1,21.6%
12,CNC[C@H](NC[C@@H](NCCCc1ccccc1)c1ccccc1)[C@H](C)O,12.1%
13,O=C(NCc1ccccc1)C1=C[C@@H](C2CCCCC2)C[C@@H](OCc2ccc(CO)cc2)O1,17.1%
14,CC(=O)Nc1cccc(C(=O)OCCCOc2ccc(F)cc2)c1,7.94%
15,O=C(CN1CCc2cc3c(cc2C1)OCCCO3)Nc1ccc(F)cc1,12%
16,CC(C)(C)N(Cc1cc2ccccc2[nH]c1=O)C(=O)c1cccnc1,0.664%
17,COc1ccc(Cc2nc(-c3cccnc3)no2)cc1OC,16.8%
18,COc1ccccc1NC(=O)c1cnc(SCC(=O)NCCc2ccccc2)n(C)c1=O,0.429%
19,NNC(=O)CSCc1ccc(Cl)cc1Cl,-1.45%
20,Cc1ccc(NC(=O)[C@@H]2CCCN2S(=O)(=O)c2ccccc2F)cc1S(=O)(=O)N1CCOCC1,15.7%
21,COc1ccc(S(=O)(=O)N2CCN(CC(=O)c3ccc(O)c(O)c3)CC2)cc1,-16%
22,O=C(COC(=O)C1CC1)NCc1ccccc1Cl,14%

row,SMILES,"hERG current change (%, negative = inhibition) at 1uM"
1,COC(=O)c1ccc(Cl)c(NC(=O)CN(c2ccc3c(c2)OCO3)S(C)(=O)=O)c1,0.215%
2,CCOC(=O)c1c(NC(=O)CSc2ncn[nH]2)sc(C(=O)N(C)C)c1C,-0.52%
3,O=C1NC(=Nc2ccccc2)/C(=C/c2ccco2)S1,15.1%
4,COc1ccc(N2C(=O)CC(N3CCN(c4cccc(Cl)c4)CC3)C2=O)cc1 (stereo not shown),14.3%
5,CCCC1(C)SC(NC(C)=O)=NN1C(C)=O (stereo not shown),7.78%
6,CCOc1ccc(NC(=O)CSc2nnc(-c3ccco3)n2C)cc1,-8.86%
7,COCCSc1nnc(NC(=O)c2ccc(NC(C)=O)cc2)s1,17.3%
8,Cc1ccc(CNC(=O)C2CCN(S(=O)(=O)c3cccc4nonc34)CC2)cc1,6.7%
9,CCNc1ncnc2c1cnn2C,7.62%
10,c1ccc(Oc2cccc(NC3=NCCC3)c2)cc1,6.47%
11,Cc1ccc(/C(N)=N/OC(=O)c2cccs2)cc1,15.3%
12,CC1(C)COC(Cn2c3ccccc3c3ccccc32)O1 (stereo not shown),12.1%
13,COc1cccc(NC(=O)CSc2ncnc3c2cnn3Cc2ccccc2)c1,3.64%
14,CC(C)C(=O)Nc1ccc(C(=O)N/N=C/C2CC3C=CC2C3)cc1 (stereo not shown),16%
15,CN(C)C(=O)c1ccc(NS(=O)(=O)c2ccc3c(c2)OCCO3)cc1,7.41%
16,O=C(NCC1CCCO1)C1c2ccccc2Oc2ccccc21 (stereo not shown),20.5%
17,O=C(NN1C(=O)/C(=C/c2ccc(O)cc2)SC1=S)c1cccc(O)c1,13.5%
18,Cc1cccc(C)c1NC(=O)CNC(=O)c1ccc(NS(=O)(=O)c2ccc3[nH]c(=O)[nH]c3c2)cc1,13.7%
19,O=C(c1ccco1)N1CCN(C(=O)C2CC(=O)N(c3ccccc3)C2)CC1 (stereo not shown),-1.56%
20,O=C(CNc1cc(S(=O)(=O)N2CCOCC2)ccc1NCC1CCCO1)Nc1ccc(C(F)(F)F)cc1 (stereo not shown),4.81%
21,COCCCNC(=O)c1ccc(Cn2c(=O)c3ccccc3n(Cc3ccc(C)cc3)c2=O)cc1,11.4%
22,COCCCn1cnc2c(c1=O)c1nc3ccccc3nc1n2-c1ccccc1,-2.6%
